{"source": "the supplement of paper PMC8728848", "test_in_all_cases": "glycan array binding signal (z-score within array); higher = stronger binding", "conditions_in_all_cases": "glycan notation: IUPAC condensed, linker removed; mutation: F335Y", "key": {"[1]": {"molecular_target": "GlcNAc(b1-3)[GlcNAc(b1-6)]GalNAc", "procedure,_shortened": "(§1)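 Glycan array binding is given as a within-array Z-score, which can be read as non-binding when negative. The arrays, 3228 of them, came from the Consortium for Functional Glycomics database and were retained only where the protein sequence was available. Z-scores were averaged across arrays of the same protein sequence at different concentrations or buffers and across linkers.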"}, "[2]": {"molecular_target": "GlcNAc(b1-4)Gal(b1-4)GlcNAc", "procedure,_shortened": "as §1"}, "GlcNAc(b1-4)GlcNAc": {"molecular_target": "GlcNAc(b1-4)GlcNAc", "procedure,_shortened": "as §1"}, "[3]": {"molecular_target": "GlcNAc(b1-4)GlcNAc(b1-4)GlcNAc", "procedure,_shortened": "as §1"}, "[4]": {"molecular_target": "GlcNAc(b1-4)GlcNAc(b1-4)GlcNAc(b1-4)GlcNAc(b1-4)GlcNAc", "procedure,_shortened": "as §1"}, "[5]": {"molecular_target": "GlcNAc(b1-4)GlcNAc(b1-4)GlcNAc(b1-4)GlcNAc(b1-4)GlcNAc(b1-4)GlcNAc", "procedure,_shortened": "as §1"}, "[6]": {"molecular_target": "GlcNAc(b1-4)[GlcNAc(b1-6)]GalNAc", "procedure,_shortened": "as §1"}, "[7]": {"molecular_target": "GlcNAc(b1-6)Gal(b1-4)GlcNAc", "procedure,_shortened": "as §1"}, "GlcNAc(b1-6)GalNAc": {"molecular_target": "GlcNAc(b1-6)GalNAc", "procedure,_shortened": "as §1"}, "GlcNAc3Prop(b1-4)GlcNAc": {"molecular_target": "GlcNAc3Prop(b1-4)GlcNAc", "procedure,_shortened": "as §1"}, "Kdn(a2-3)Gal(b1-3)GlcNAc": {"molecular_target": "Kdn(a2-3)Gal(b1-3)GlcNAc", "procedure,_shortened": "as §1"}, "Kdn(a2-3)Gal(b1-4)GlcNAc": {"molecular_target": "Kdn(a2-3)Gal(b1-4)GlcNAc", "procedure,_shortened": "as §1"}, "[8]": {"molecular_target": "Man(a1-2)Man(a1-2)Man(a1-3)Man", "procedure,_shortened": "as §1"}, "[9]": {"molecular_target": "Man(a1-2)Man(a1-2)Man(a1-6)[Man(a1-3)]Man", "procedure,_shortened": "as §1"}, "Man(a1-2)Man(a1-3)Man": {"molecular_target": "Man(a1-2)Man(a1-3)Man", "procedure,_shortened": "as §1"}, "[10]": {"molecular_target": "Man(a1-2)Man(a1-3)[Man(a1-2)Man(a1-6)]Man", "procedure,_shortened": "as §1"}, "[11]": {"molecular_target": "Man(a1-2)Man(a1-3)[Man(a1-2)Man(a1-6)]Man(a1-6)[Man(a1-2)Man(a1-2)Man(a1-3)]Man", "procedure,_shortened": "as §1"}, "[12]": {"molecular_target": "Man(a1-2)Man(a1-3)[Man(a1-2)Man(a1-6)]Man(a1-6)[Man(a1-2)Man(a1-2)Man(a1-3)]Man(b1-4)GlcNAc(b1-4)GlcNAc", "procedure,_shortened": "as §1"}, "[13]": {"molecular_target": "Man(a1-2)Man(a1-3)[Man(a1-6)]Man(a1-6)[Man(a1-2)Man(a1-3)]Man(b1-4)GlcNAc(b1-4)GlcNAc", "procedure,_shortened": "as §1"}, "[14]": {"molecular_target": "Man(a1-2)Man(a1-6)[Man(a1-3)]Man(a1-6)[Man(a1-2)Man(a1-2)Man(a1-3)]Man", "procedure,_shortened": "as §1"}, "[15]": {"molecular_target": "Man(a1-2)Man(a1-6)[Man(a1-3)]Man(a1-6)[Man(a1-2)Man(a1-2)Man(a1-3)]Man(b1-4)GlcNAc(b1-4)GlcNAc", "procedure,_shortened": "as §1"}, "Man(a1-3)[Man(a1-6)]Man": {"molecular_target": "Man(a1-3)[Man(a1-6)]Man", "procedure,_shortened": "as §1"}, "[16]": {"molecular_target": "Man(a1-3)[Man(a1-6)]Man(a1-6)[Man(a1-2)Man(a1-3)]Man(b1-4)GlcNAc(b1-4)GlcNAc", "procedure,_shortened": "as §1"}, "[17]": {"molecular_target": "Man(a1-3)[Man(a1-6)]Man(a1-6)[Man(a1-3)]Man", "procedure,_shortened": "as §1"}, "[18]": {"molecular_target": "Man(a1-3)[Man(a1-6)]Man(a1-6)[Man(a1-3)]Man(b1-4)GlcNAc(b1-4)GlcNAc", "procedure,_shortened": "as §1"}, "[19]": {"molecular_target": "Man(a1-3)[Man(a1-6)]Man(b1-4)GlcNAc(b1-4)GlcNAc", "procedure,_shortened": "as §1"}, "Man(a1-6)Man": {"molecular_target": "Man(a1-6)Man", "procedure,_shortened": "as §1"}, "Man(b1-4)GlcNAc": {"molecular_target": "Man(b1-4)GlcNAc", "procedure,_shortened": "as §1"}, "Neu5Ac(a2-3)Gal": {"molecular_target": "Neu5Ac(a2-3)Gal", "procedure,_shortened": "as §1"}, "[20]": {"molecular_target": "Neu5Ac(a2-3)Gal(b1-3)GalNAc", "procedure,_shortened": "as §1"}, "[21]": {"molecular_target": "Neu5Ac(a2-3)Gal(b1-3)GalNAc(b1-3)Gal(a1-4)Gal(b1-4)Glc", "procedure,_shortened": "as §1"}, "[22]": {"molecular_target": "Neu5Ac(a2-3)Gal(b1-3)GalNAc(b1-3)Gal(b1-4)GlcNAc", "procedure,_shortened": "as §1"}, "[23]": {"molecular_target": "Neu5Ac(a2-3)Gal(b1-3)GalNAc(b1-4)[Neu5Ac(a2-3)]Gal(b1-4)Glc", "procedure,_shortened": "as §1"}, "[24]": {"molecular_target": "Neu5Ac(a2-3)Gal(b1-3)GalNAc6S", "procedure,_shortened": "as §1"}, "[25]": {"molecular_target": "Neu5Ac(a2-3)Gal(b1-3)GlcNAc", "procedure,_shortened": "as §1"}, "[26]": {"molecular_target": "Neu5Ac(a2-3)Gal(b1-3)GlcNAc(b1-3)Gal(b1-3)GlcNAc", "procedure,_shortened": "as §1"}, "[27]": {"molecular_target": "Neu5Ac(a2-3)Gal(b1-3)GlcNAc6S", "procedure,_shortened": "as §1"}, "[28]": {"molecular_target": "Neu5Ac(a2-3)Gal(b1-3)[Fuc(a1-4)]GlcNAc", "procedure,_shortened": "as §1"}}, "note": "This is one part of the list.", "data": [{"binder": "Surfactant Protein D (Human); Neck + Carbohydrate Recognition Domain (NCRD) (Homo sapiens) (protein) MLLFLLSALVLLTQPLGYLEAEMKTYSHRTMPSACTLVMCSSVESGLPGRDRDGREGPRGEKGDPGLPGAAGQAGMPGQAGPVGPKGDNGSVGEPGPKGDTGPSGPPGPPGVPGPAGREGALGKQGNIGPQGKPGPKGEAGPKGEVGAPGMQGSAGARGLAGPKGERGVPGERGVPGNTGAAGSAGAMGPQGSPGARGPPGLKGDKGIPGDKGAKGESGLPDVASLRQQVEALQGQVQHLQAAFSQYKKVELFPNGQSVGEKIFKTAQFVKPFTEAQLLCTQAGGQLASPRSAAENAALQQLVVAKNEAAFLSMTDSKTEGKFTYPTGESLVYSNWAPGEPNDDGGSEDCVEIYTNGKWNDRACGEKRLVVCEF", "values": [{"measurement": "glycan array binding signal (z-score)", "setting": "[1]", "value": -0.189}, {"measurement": "glycan array binding signal (z-score)", "setting": "[2]", "value": -0.185}, {"measurement": "glycan array binding signal (z-score)", "setting": "GlcNAc(b1-4)GlcNAc", "value": -0.192}, {"measurement": "glycan array binding signal (z-score)", "setting": "[3]", "value": -0.19}, {"measurement": "glycan array binding signal (z-score)", "setting": "[4]", "value": -0.195}, {"measurement": "glycan array binding signal (z-score)", "setting": "[5]", "value": -0.193}, {"measurement": "glycan array binding signal (z-score)", "setting": "[6]", "value": -0.157}, {"measurement": "glycan array binding signal (z-score)", "setting": "[7]", "value": -0.191}, {"measurement": "glycan array binding signal (z-score)", "setting": "GlcNAc(b1-6)GalNAc", "value": -0.181}, {"measurement": "glycan array binding signal (z-score)", "setting": "GlcNAc3Prop(b1-4)GlcNAc", "value": -0.186}, {"measurement": "glycan array binding signal (z-score)", "setting": "Kdn(a2-3)Gal(b1-3)GlcNAc", "value": -0.18}, {"measurement": "glycan array binding signal (z-score)", "setting": "Kdn(a2-3)Gal(b1-4)GlcNAc", "value": -0.19}, {"measurement": "glycan array binding signal (z-score)", "setting": "[8]", "value": 3.03}, {"measurement": "glycan array binding signal (z-score)", "setting": "[9]", "value": 5.87}, {"measurement": "glycan array binding signal (z-score)", "setting": "Man(a1-2)Man(a1-3)Man", "value": 0.21}, {"measurement": "glycan array binding signal (z-score)", "setting": "[10]", "value": 7.66}, {"measurement": "glycan array binding signal (z-score)", "setting": "[11]", "value": 7.37}, {"measurement": "glycan array binding signal (z-score)", "setting": "[12]", "value": 0.541}, {"measurement": "glycan array binding signal (z-score)", "setting": "[13]", "value": 2.53}, {"measurement": "glycan array binding signal (z-score)", "setting": "[14]", "value": 2.26}, {"measurement": "glycan array binding signal (z-score)", "setting": "[15]", "value": 5.84}, {"measurement": "glycan array binding signal (z-score)", "setting": "Man(a1-3)[Man(a1-6)]Man", "value": 0.326}, {"measurement": "glycan array binding signal (z-score)", "setting": "[16]", "value": 7.18}, {"measurement": "glycan array binding signal (z-score)", "setting": "[17]", "value": 3.93}, {"measurement": "glycan array binding signal (z-score)", "setting": "[18]", "value": 5.06}, {"measurement": "glycan array binding signal (z-score)", "setting": "[19]", "value": 0.202}, {"measurement": "glycan array binding signal (z-score)", "setting": "Man(a1-6)Man", "value": -0.169}, {"measurement": "glycan array binding signal (z-score)", "setting": "Man(b1-4)GlcNAc", "value": -0.191}, {"measurement": "glycan array binding signal (z-score)", "setting": "Neu5Ac(a2-3)Gal", "value": -0.19}, {"measurement": "glycan array binding signal (z-score)", "setting": "[20]", "value": -0.19}, {"measurement": "glycan array binding signal (z-score)", "setting": "[21]", "value": -0.187}, {"measurement": "glycan array binding signal (z-score)", "setting": "[22]", "value": -0.192}, {"measurement": "glycan array binding signal (z-score)", "setting": "[23]", "value": -0.187}, {"measurement": "glycan array binding signal (z-score)", "setting": "[24]", "value": -0.191}, {"measurement": "glycan array binding signal (z-score)", "setting": "[25]", "value": -0.187}, {"measurement": "glycan array binding signal (z-score)", "setting": "[26]", "value": -0.179}, {"measurement": "glycan array binding signal (z-score)", "setting": "[27]", "value": -0.192}, {"measurement": "glycan array binding signal (z-score)", "setting": "[28]", "value": -0.188}]}]}
